The RNAGym collection of RNA variant scans (doi:10.7554/elife.90254)
The source gives no read counts; variants with many changes may rest on few reads.

B1: LINE1-mini (parent)
chain: GGCAGAGCUCAACACAGCGUGGCAAAGUGGCUGUGGCUAGACUGCC

Variants of: B1
Assay: self-cleavage, relative activity (ratio to wild type); higher = more cleavage; in vitro, sequencing; the parent is a self-cleaving ribozyme
Work on C15A G40U C42U yielded a self-cleavage of 0.05.
For G5U C23U C42G C45A, the self-cleavage was 0.
U9G A11G A26G C42U showed a self-cleavage of 0.
In the case of G17C G30A C46A, the self-cleavage is reported as 0.1.
With C3G U20G U34C C37G the self-cleavage was 0.17.
In the case of U20C G21A U28A, the self-cleavage is reported as 0.49.
With G5U C8G U20G the self-cleavage was 0.05.
In the case of C3U C10A G19U G33U, the self-cleavage is reported as 0.03.
With A14G A26U U32C C37U the self-cleavage was 0.03.
Work on G5U C10G G30A G36C yielded a self-cleavage of 0.02.
In the case of U9C C10G C23A G27C U28G, the self-cleavage is reported as 0.01.
Variant C13U G29C C45A has a self-cleavage of 0.23.
For G1C G2A U28A G33A, the self-cleavage was 0.04.
Variant G21U G30U G36A A39G has a self-cleavage of 0.04.
Variant G7A C10A A26U has a self-cleavage of 0.09.
In the case of G1U G5C G19C A41G, the self-cleavage is reported as 0.01.
In the case of A6U C18G G30A, the self-cleavage is reported as 0.82.
Work on A12U C15A A16U G19C yielded a self-cleavage of 0.04.
In the case of A4C G22A G40A C46U, the self-cleavage is reported as 0.24.
Work on C8A A24C C31G yielded a self-cleavage of 0.25.
G7A U20A C31A G44U showed a self-cleavage of 0.02.
With A26G U34A G44A the self-cleavage was 0.23.
In the case of G5C G22A C23U A24C G35A C45U, the self-cleavage is reported as 0.32.
A12U C31A U32G U43C showed a self-cleavage of 0.06.
Work on G2C A14C A24C A41G yielded a self-cleavage of 0.01.
G5U G21C U43G showed a self-cleavage of 0.05.
Work on A14U G17U C18G yielded a self-cleavage of 0.05.
Work on A11C C18U A24G G35C yielded a self-cleavage of 0.
In the case of A14U G17A G21C G30U, the self-cleavage is reported as 0.09.
C23A A26U G40U C45G showed a self-cleavage of 0.51.
A16C U34A C46G showed a self-cleavage of 0.01.
For C18U G21C G44U, the self-cleavage was 0.15.
With A4G G27U U28C G29U C31U G35A G44A the self-cleavage was 0.01.
With A14U A24U A39G the self-cleavage was 0.09.
For C10G U34A G44U, the self-cleavage was 0.02.
For G5A G29U G33A C37U C42A, the self-cleavage was 0.23.
Work on A4U C8U G40U A41C yielded a self-cleavage of 0.28.
G2A A6C U34A C37A gave a self-cleavage of 0.07.
With G2C G5U A14G U38A the self-cleavage was 0.
C18U G29U U38C U43G showed a self-cleavage of 2.11.
G17C G30U C31U gave a self-cleavage of 0.03.
G2C A6C A24C U32A gave a self-cleavage of 0.05.
With C8G A11C G40A C46U the self-cleavage was 0.01.
Work on C13A C15A G17A G35U yielded a self-cleavage of 0.01.
Variant C3A A6U A11C G19C G27C U28A has a self-cleavage of 0.01.
With A11U C13G A16C G19A C31A C45U the self-cleavage was 0.
C8A A11U C37G A41G showed a self-cleavage of 0.01.
In the case of A14U A26G U34G C42G, the self-cleavage is reported as 0.02.
In the case of A4U U20A C23U A24U A25G, the self-cleavage is reported as 0.04.
For G5A G22C U38A, the self-cleavage was 0.09.
Variant C3A A4U C10A A25C G33A G36C C42U G44C has a self-cleavage of 0.01.
Work on A14C G17U G27U G36U yielded a self-cleavage of 0.1.
A4C C10U U20G showed a self-cleavage of 0.01.
C13G A14G C15A G19C G33U C46U showed a self-cleavage of 0.07.
A11C C42G C45A showed a self-cleavage of 0.01.
In the case of C15U G30A C37G, the self-cleavage is reported as 0.01.
G22C C23A U34G showed a self-cleavage of 0.41.
Work on G5A C18G G33C U34C yielded a self-cleavage of 0.04.
In the case of A4G G7A G36C, the self-cleavage is reported as 0.12.
G2A A6G G17C G40C gave a self-cleavage of 0.08.
With C10A A11G A14U the self-cleavage was 0.07.
For C13U A14G G40C, the self-cleavage was 0.02.
Variant A4G U9G A11G has a self-cleavage of 0.11.
Work on G7A C13G G33C U43C yielded a self-cleavage of 0.06.
C10G U28C G29C U34C G35A gave a self-cleavage of 0.
C10U C13A G19C gave a self-cleavage of 0.03.
Variant G1C G22U A26U U38C G44U has a self-cleavage of 0.02.
A6C C8U A26G gave a self-cleavage of 0.48.
With G7U U9A C10A G17A G19A G21A G29C the self-cleavage was 0.02.
Work on C3A U9A C13A U28C G40U C42U yielded a self-cleavage of 0.34.
Work on G30A C31A C42G yielded a self-cleavage of 0.04.
A4C G17U G22C G33C C37U U38C showed a self-cleavage of 0.08.
With G2U U9G G22U C45G the self-cleavage was 0.03.
G19A G22U A25C C46A showed a self-cleavage of 0.37.
G30C U38A C42G gave a self-cleavage of 0.08.
Work on A6C C10G C45A yielded a self-cleavage of 0.03.
For G1C G5C A6C G7U G17U, the self-cleavage was 0.05.
With G2A C18U G19U A25C U34G C46U the self-cleavage was 0.1.
C8G C15U A16C gave a self-cleavage of 0.04.
C10U G21C G22C gave a self-cleavage of 0.02.
In the case of C18A G22U A41U, the self-cleavage is reported as 0.38.
Variant G5U C8G A26C A39G A41G has a self-cleavage of 0.
Work on C8A C15A A25G C31U yielded a self-cleavage of 0.11.
C3G C10A U20A U34C C37G G40A gave a self-cleavage of 0.01.
G17C U20C G33U C42G C46A showed a self-cleavage of 0.
With G5U G21U G40U the self-cleavage was 0.26.
C10U G19C G29C gave a self-cleavage of 0.07.
For A16C C37A C45U, the self-cleavage was 0.05.
For U9A A26U C42G, the self-cleavage was 0.02.
With A11U G29C U38C G40U C42U the self-cleavage was 0.
C3G G7U A25G showed a self-cleavage of 0.15.
G5U C10A G27U G44C showed a self-cleavage of 0.04.
In the case of C3A C18U G19C U28C C45U, the self-cleavage is reported as 0.07.
In the case of U9G C31A C45A, the self-cleavage is reported as 0.03.
Work on G2C C15A C18U G35C C42G yielded a self-cleavage of 0.11.
G7U A25C U28A C31U gave a self-cleavage of 0.01.
G1A G17A C31A G40U C45A gave a self-cleavage of 0.01.
Variant A11G C31U U32A has a self-cleavage of 0.03.
For C13G C23G U43A, the self-cleavage was 0.15.
Work on G5A C8U U9C yielded a self-cleavage of 0.04.
For G1U A12U G27U, the self-cleavage was 0.02.
Variant G7U A12C C31U has a self-cleavage of 0.03.
With A4U A25G U28G the self-cleavage was 0.1.
Variant G5C C8G A24C U28A has a self-cleavage of 0.07.
Variant C13G G21U A25G U32A G33C U38A G40A has a self-cleavage of 0.08.
G29U G33U U34C C37U U43A gave a self-cleavage of 0.03.
Variant C3U A24G G29A G40C A41C has a self-cleavage of 0.17.
C10U A24G A39C A41C C42U gave a self-cleavage of 0.01.
In the case of C10G C15G A24U C31A C42A, the self-cleavage is reported as 0.
With G7U A26G G27A U28G the self-cleavage was 0.
In the case of A16C G17C U20A G29U, the self-cleavage is reported as 0.11.
In the case of G2C G22C U38C, the self-cleavage is reported as 0.03.
U28C G29C G30U G40U gave a self-cleavage of 0.02.
A11C U28A G29A G35A showed a self-cleavage of 0.02.
With A6C G7C C8U U28G the self-cleavage was 0.01.
Work on C3G G19C G22C G36A yielded a self-cleavage of 0.02.
With U9A G19A U38G C42A the self-cleavage was 0.05.
For A6G U9G A12G C15A G19C A26C, the self-cleavage was 0.02.
C15G C23G G35U gave a self-cleavage of 0.01.
With C8A C10U C23U A26U the self-cleavage was 0.14.
Variant G2A C10G U34G has a self-cleavage of 0.2.
Work on G7A C23G A41G U43A C45A yielded a self-cleavage of 0.18.
In the case of C10A A11U G22U A24G G33U, the self-cleavage is reported as 0.02.
With C31A A39U A41G the self-cleavage was 0.31.
For C8A C15U G19U A24G G27U, the self-cleavage was 0.32.
Variant C10A C37U A39C has a self-cleavage of 0.05.
Variant G2U G17C U20G G35A has a self-cleavage of 0.02.
C8A C15U A26G showed a self-cleavage of 0.13.
With G22A G36C C46A the self-cleavage was 0.04.
With A14C G40U C46A the self-cleavage was 0.07.
With A26C G33U U43C the self-cleavage was 0.
Variant G1C C37A G40U has a self-cleavage of 0.05.
In the case of G19U U20A G21U, the self-cleavage is reported as 0.22.
With A25G G30C G36C the self-cleavage was 0.06.
With G17U G27U U32A the self-cleavage was 0.04.
Variant U9A A11C C13U A25C G27U has a self-cleavage of 0.02.
Variant C8U U20A G30C C31U U32G C37A G44U has a self-cleavage of 0.04.
With A11U A24U A25G the self-cleavage was 0.64.
Work on A24U A41U C42U yielded a self-cleavage of 0.1.
Variant C3U C8U C10A has a self-cleavage of 0.03.
C13U G19U U20C G21A G30U gave a self-cleavage of 0.05.
U9G C15U G35U A41U C42U showed a self-cleavage of 0.13.
Variant C15G U34C A39C has a self-cleavage of 0.07.
G1U A14G C15U C18G G22C C23G U38C C42U showed a self-cleavage of 0.02.
For G1A A16G A41U, the self-cleavage was 0.75.
G2A C37G U43C gave a self-cleavage of 0.16.
In the case of A6G C10A C15A G36A C46A, the self-cleavage is reported as 0.01.
For A4U A12G G30A C42A G44U C45G, the self-cleavage was 0.03.
Work on A6C G27U U43C yielded a self-cleavage of 0.06.
For A16C A26G G33A C37G G44U, the self-cleavage was 0.03.
C3A C8U C46A showed a self-cleavage of 1.1.
Variant A16C G29C C45G has a self-cleavage of 0.08.
With C8A A14C C31U U32G the self-cleavage was 0.06.
For A6C C10G A12C C15G A16C G19A A41U, the self-cleavage was 0.01.
Work on C8G A24G C46A yielded a self-cleavage of 0.02.
With G2U C13A A25G G30A G35A the self-cleavage was 0.01.
With A6U G7U A26C the self-cleavage was 0.04.
For G1C A4C G30U G33U, the self-cleavage was 0.01.
G5U G21U U28G G30A C31A showed a self-cleavage of 0.02.
G5A C10A A41C showed a self-cleavage of 0.07.
For U20A G44A C46G, the self-cleavage was 0.01.
G1C C10A C18A C46U gave a self-cleavage of 0.01.
C15A A39U U43G C45U gave a self-cleavage of 0.06.
Work on C15A G19A G35A yielded a self-cleavage of 0.21.
In the case of G7C U34C C45A, the self-cleavage is reported as 0.04.
With C8U A11C A16G G35U the self-cleavage was 0.
Variant A4G C8A A12C A41C C45A has a self-cleavage of 0.03.
